# Results reported in publication PMC4336329 (PLoS ONE, 2015).
# Screen size: about 310,000 compounds; about 14,000 (4.5%) showed an effect of 50% or more. Effects have a minus sign here. Some of the results follow.
# Molecular target: human ether-à-go-go-related gene (hERG) potassium channel (human, UniProt Q12809)
# Test: primary screen, population patch clamp on CHO cells stably expressing hERG
# 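Note: peak tail current of the secondary pulse compared with the same well before compound.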
# Sequence of human ether-à-go-go-related gene (hERG) potassium channel (Q12809 whole entry, looked up): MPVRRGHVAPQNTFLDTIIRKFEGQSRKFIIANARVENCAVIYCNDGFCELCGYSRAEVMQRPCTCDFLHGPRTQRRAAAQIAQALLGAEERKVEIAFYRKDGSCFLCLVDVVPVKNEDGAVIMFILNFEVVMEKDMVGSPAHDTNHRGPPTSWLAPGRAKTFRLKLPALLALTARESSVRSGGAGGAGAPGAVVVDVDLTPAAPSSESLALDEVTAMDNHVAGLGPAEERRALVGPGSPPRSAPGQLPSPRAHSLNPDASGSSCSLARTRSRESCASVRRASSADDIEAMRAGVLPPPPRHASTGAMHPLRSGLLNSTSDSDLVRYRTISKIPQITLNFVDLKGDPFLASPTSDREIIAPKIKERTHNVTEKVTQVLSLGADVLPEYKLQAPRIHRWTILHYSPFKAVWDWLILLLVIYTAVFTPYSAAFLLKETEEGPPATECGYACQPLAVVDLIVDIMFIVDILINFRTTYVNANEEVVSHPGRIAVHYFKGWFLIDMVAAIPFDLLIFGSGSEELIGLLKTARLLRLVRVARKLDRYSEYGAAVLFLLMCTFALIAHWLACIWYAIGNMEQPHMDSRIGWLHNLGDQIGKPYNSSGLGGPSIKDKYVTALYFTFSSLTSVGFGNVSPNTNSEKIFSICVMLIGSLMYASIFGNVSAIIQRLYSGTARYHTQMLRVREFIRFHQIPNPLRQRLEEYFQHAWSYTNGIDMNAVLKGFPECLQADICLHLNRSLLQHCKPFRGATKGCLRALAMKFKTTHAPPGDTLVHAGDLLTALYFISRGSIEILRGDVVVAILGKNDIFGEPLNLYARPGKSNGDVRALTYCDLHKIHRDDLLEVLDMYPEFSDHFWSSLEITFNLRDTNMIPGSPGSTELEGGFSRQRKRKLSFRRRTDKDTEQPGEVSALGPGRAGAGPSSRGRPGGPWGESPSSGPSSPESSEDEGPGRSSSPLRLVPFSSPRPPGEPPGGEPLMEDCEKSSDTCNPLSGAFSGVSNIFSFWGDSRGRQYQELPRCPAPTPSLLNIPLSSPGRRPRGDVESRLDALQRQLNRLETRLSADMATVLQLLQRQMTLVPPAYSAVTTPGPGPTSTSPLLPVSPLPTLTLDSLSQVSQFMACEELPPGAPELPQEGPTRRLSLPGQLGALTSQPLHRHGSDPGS
row,Compound,"hERG current change (%, negative = inhibition) at 10uM [%]"
1,CSc1ccc(CN(C)C(=O)CSCC(=O)Nc2ccc(C)cc2)cc1,-73
2,Cc1ccnc(NC(=O)CCC(=O)c2cc(C)sc2C)c1,11.5
3,CN(c1ccccc1)S(=O)(=O)c1ccc(C(=O)N2CCCC(C(F)(F)F)C2)cc1 (stereo not shown),5.9
4,CCCn1c(SCC(=O)Nc2cc(C)on2)nc2c1c(=O)n(C)c(=O)n2C,-4.46
5,CCOc1ccc(CN(C(=O)c2oc3cc(C)ccc3c2C)C2CCS(=O)(=O)C2)cc1 (stereo not shown),-10
6,O=C(Nc1sc2c(c1C(=O)NCC1CCCO1)CCCC2)c1cccs1 (stereo not shown),11.7
7,O=C(CO/N=C/c1c(Cl)cccc1Cl)NNC(=O)c1ccc(Cl)cc1,8.46
8,COc1ccc(NC(=O)CCNS(=O)(=O)c2cccc3nonc23)cc1,1.82
9,Cc1ccc(-n2c(N)c(C#N)c(-c3ccccc3)c(C#N)c2=O)cc1,1.05
10,CN1C(=O)C(O)(C2COC(C)(C)CC2=O)c2ccccc21 (stereo not shown),4.26
11,O=C(NC(=S)NCC1CCCO1)c1ccc(Cl)cc1 (stereo not shown),-7.34
12,O=C(COc1ncnc2ccccc12)Nc1ccc(Cl)c(S(=O)(=O)N2CCOCC2)c1,-13.5
13,O=S(=O)(NCc1cc(-c2ccc(Cl)cc2)no1)c1ccc(Cl)cc1,-1.55
14,Cc1ccc(C)c(N2CCN(C(c3ccc(N(C)C)cc3)c3nnnn3C(C)(C)C)CC2)c1 (stereo not shown),8.2
15,O=C(c1ccc(C(F)(F)F)cc1)C1CCCN(C(=O)CCN2CCCO2)C1 (stereo not shown),-11.9
16,Cc1ccccc1CSCc1nc2ccccc2[nH]1,-3.08
17,COc1ccc(OCCNC(=O)c2ccccc2Cl)cc1,7.62
18,Cc1ccc2oc(=O)cc(CN3CCCCC3)c2c1,15.9
19,Cc1csc(=O)n1CC(=O)OCC(=O)Nc1cc(S(=O)(=O)N2CCOCC2)ccc1Cl,-5.05
20,CC(=O)Nc1ccc(S(=O)(=O)NCC(=O)OCC(=O)NC(=O)c2cccn2C)cc1,-2.65
21,CC(CNC(=O)c1cc(COc2c(F)cccc2F)on1)Oc1cccnc1 (stereo not shown),-18.6
22,Cc1ccc(-c2cc(-c3ccc(Cl)cc3)c(C#N)c(N)n2)o1,-8.33

row,Compound,"hERG current change (%, negative = inhibition) at 10uM [%]"
1,O=C(CCCN1C(=O)S/C(=C/C=C/c2ccccc2)C1=O)Nc1ccc(C(=O)O)cc1,15
2,CN(C)S(=O)(=O)c1ccc(NC(=O)C2CC(=O)N(Cc3ccccc3)C2)cc1 (stereo not shown),14.9
3,COc1ccc(CCN2CC(C(=O)Nc3nnc(Cc4ccccc4)s3)CC2=O)cc1OC (stereo not shown),-5.35
4,CCN1C(=O)CS/C1=C(\C#N)S(=O)(=O)c1ccccc1,8.57
5,O=C(Nc1ccc(C(=O)N2CCCCC2)cc1)c1ccccc1Cl,-14.3
6,CCOC(=O)CNC(=O)C1(/C=C/c2ccccc2)CC(=O)N1c1ccc(OC)cc1 (stereo not shown),-11.1
7,CCCCn1c(N)c(N(CC)C(=O)c2ccccc2F)c(=O)[nH]c1=O,27.9
8,Cc1ccccc1Cn1c2ccccc2c2cnn(CC(=O)NCc3ccco3)c(=O)c21,10.9
9,CC(=O)OC[C@H]1O[C@H](C/C=N/O[C@@H](C)c2cn([C@H](CO)Cc3ccccc3)nn2)C=C[C@@H]1OC(C)=O,3.92
10,COc1ccc(Oc2ccc(N/C=C3\CCCC3=O)cc2)cc1,4.18
11,COC(=O)c1ccc(NC(=O)CSc2nn3c(=O)c(C)nnc3s2)cc1,7.44
12,CC(=O)N=c1c(C#N)cc2c(=O)n3cccc(C)c3nc2n1CCCOC(C)C,-50.4
13,CCOC(=O)N1CCN(S(=O)(=O)c2cc(C)c(C)cc2C)CC1,-3.19
14,Cc1nc2sc(C(c3cccs3)N3CCN(C(=O)c4ccco4)CC3)c(O)n2n1 (stereo not shown),-2.77
15,CO/N=C(\c1nonc1N)N1CCN(c2ccc([N+](=O)[O-])cc2Cl)CC1,1.73
16,N#Cc1c(Nc2ccccc2)c(/C=N/NCCO)c[nH]c1=O,18.2
17,Cc1c(Cl)c([N+](=O)[O-])nn1CCCC(=O)Nc1cccc(O)c1,-10.8
18,CCCCC(=O)Nc1ccc(NC(=O)c2ccccc2OC)cn1,-8.77
19,CC1CCc2sc(C(=O)NN)cc2C1 (stereo not shown),21.1
20,Cc1ccc(NC(=O)C2CCN(c3cnccn3)CC2)cc1,34.8
21,COc1ccc(O[C@H]2C=C[C@@H](c3ccccc3)O[C@@H]2COC(=O)CC/C(C)=N/OC[C@@H](O)COCc2ccco2)cc1,-11.3
22,Cc1cccc(N2CCN(C(C)C(=O)N3CCc4ccccc43)CC2)c1C (stereo not shown),17

row,Compound,"hERG current change (%, negative = inhibition) at 10uM [%]"
1,COC(=O)/C=C1\SC(=NC(=O)c2cccc([N+](=O)[O-])c2)NC1=O,10.5
2,CC(=O)c1ccc(S(=O)(=O)Nc2cccc(-c3ccc4nncn4n3)c2)cc1,5.07
3,CC(=O)C1[C@H](N(C)C)CC2C3CC=C4CC(O)CC[C@]4(C)C3CC[C@@]21C (stereo partly shown),5.3
4,COc1cc([N+](=O)[O-])ccc1NC(=O)COC(=O)CCOc1ccc(C)cc1,-11.2
5,Cc1c(C(=O)O)cccc1-n1c(C)cc(/C=C2\C(=O)NC(=O)N(c3ccc4c(c3)OCO4)C2=O)c1C,11.9
6,COc1ccc(/C=N/NC(=O)Cc2cccs2)cc1,-20.7
7,COC(=O)CCc1c(COC(C)=O)[nH]c(C(=O)OCc2ccccc2)c1C,-2.7
8,Cc1cccc(N2CCN(C(=O)c3csc4ccccc34)CC2C)c1 (stereo not shown),-13
9,O=C1OC(C(=O)Nc2ccccc2)Cc2ccccc21 (stereo not shown),14.5
10,O=C(CSc1ncn[nH]1)Nc1ccccc1C(=O)O,3.1
11,COc1ccc(-c2nn(-c3ccccc3)cc2/C=N/Nc2ccccn2)cc1OC,4.92
12,COC(=O)c1ccccc1NC(=O)CSc1n[nH]c(-c2ccncc2)n1,6.6
13,Cc1noc(C)c1COc1ccc(CC(=O)NCCc2ccccc2)cc1,6.93
14,Cc1nnc(C)c2c(C)n(C(c3ccccc3)c3ccccc3)c(C)c12,-71.4
15,Cc1nc(NCc2ccccn2)c2c3c(sc2n1)CCCC3,-28.6
16,COc1ccc(N2CC(C(=O)N[C@@H](C)C(=O)NC(C)c3ccccc3)CC2=O)cc1 (stereo partly shown),7.6
17,Cc1cc(C)cc(NC(=O)CN2C(=O)COc3ccc(S(=O)(=O)N4CCCC4)cc32)c1,9.24
18,COC(=O)c1ccccc1OCC(=O)N1CCN(c2ccc(F)cc2)CC1,-44.9
19,COC(=O)C1=C(C)N(Cc2ccccc2)C(=O)N[C@H]1CCc1ccccc1,5.81
20,O=C(Nc1ccc(Cl)cc1)Nc1ccc2c(c1)OCO2,17.6
21,Cc1ccc(S(=O)(=O)NC(=NC(C)C)c2ccccc2)cc1,1.25
22,COc1ccc(S(=O)(=O)N2CCN(C(=O)C3CCCCC3)CC2)cc1,16.4

row,Compound,"hERG current change (%, negative = inhibition) at 10uM [%]"
1,COc1ccc(Nc2nnc(SCC3CCCO3)s2)cc1 (stereo not shown),-5.7
2,COC(=O)Cc1c[nH]c2cccc(OCC(O)CN(Cc3ccc([N+](=O)[O-])cc3)C(C)(C)C)c12.Cl (stereo not shown),-4.66
3,COc1ccc(S(=O)(=O)N2Cc3ccccc3CC2C(=O)N2CCOCC2)cc1 (stereo not shown),-59.2
4,CCc1nnc(NC(=O)c2ccc(-c3cccc(C(F)(F)F)c3)o2)s1,22
5,CC1CCN(C(=O)C(=O)Nc2sc3c(c2C(=O)O)CC(C)(C)OC3)CC1,17.1
6,COc1cc(C(=O)Nc2ccccc2SCc2cc(=O)n3nc(C)sc3n2)cc(OC)c1OC,1.99
7,O=C(NCCCN1CCCC1=O)c1ccc([N+](=O)[O-])s1,-18
8,O=C(Cc1coc2ccc3ccccc3c12)Nc1nnc(C2CC2)s1,14.3
9,O=c1c(Cl)cc(Cl)nn1-c1ccccc1,2.74
10,Cc1cccc(NC(=O)COc2cccc3c2CCN(C)C3=O)c1C,-12.7
11,O=C(CN1CCCCCC1)Nc1ccc(Br)cc1[N+](=O)[O-],14.1
12,O=C(c1cc(-c2ccco2)nc2ccccc12)N1CCCC(C(F)(F)F)C1 (stereo not shown),-4.86
13,COc1ccc(CCNC(=O)C(=O)NCC2OCCN2S(=O)(=O)c2ccccc2)cc1 (stereo not shown),-4.26
14,COc1ccccc1CNC(=O)CN1CCN(c2ccc(C(C)=O)cc2)CC1,-26.2
15,CC(C)c1ccc(N(CC(=O)NC2CCCCC2)C(=O)CNC(=O)c2ccco2)cc1,-24.7
16,O=C(O)c1cnc(-c2ccccc2)nc1Sc1ccccc1,14.2
17,CC(C)CN(C(=O)CCCc1nc2ccccc2c(=O)[nH]1)c1c(N)n(Cc2ccccc2)c(=O)[nH]c1=O,23.1
18,CSCCC(NS(=O)(=O)c1c(Cl)cccc1Cl)C(=O)O (stereo not shown),37.2
19,NC(=S)Nn1c(-c2ccccc2)nc2ccccc2c1=O,11.2
